Test results reported in PubChem BioAssay (NCI).
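Step 1: Grow cells in 96-well plates. Step 2: Expose to compound for 48 hours at 5 concentrations. Step 3: Interpolate endpoints linearly; if unreached, use highest concentration. TGI: concentration producing complete growth inhibition.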

Experiments:
Experiment in all cases: NCI anticancer screen, dose series, 48 h
[1] = tested on: CAKI-1 renal
[2] = tested on: SF-295 CNS
[3] = tested on: HT29 colon
[4] = tested on: OVCAR-5 ovarian
[5] = tested on: A498 renal
[6] = tested on: M14 melanoma
[7] = tested on: MOLT-4 leukemia
[8] = tested on: UO-31 renal
[9] = tested on: HL-60(TB) leukemia
[10] = tested on: 786-0 renal
[11] = tested on: RXF 393 renal
[12] = tested on: HOP-92 NSCLC
[13] = tested on: NCI-H460 lung
[14] = tested on: BT-549 breast
[15] = tested on: MCF7 breast
[16] = tested on: NCI-H522 lung
[17] = tested on: LXFL 529 NSCLC
[18] = tested on: IGROV1 ovarian
[19] = tested on: SN12C renal
[20] = tested on: SW-620 colon
[21] = tested on: SK-MEL-5 melanoma
[22] = tested on: ACHN renal
[23] = tested on: UACC-257 melanoma
[24] = tested on: HCT-116 colon
[25] = tested on: A549 NSCLC
[26] = tested on: MALME-3M melanoma
[27] = tested on: SK-MEL-2 melanoma
[28] = tested on: PC-3 prostate
[29] = tested on: M19-MEL melanoma
[30] = tested on: NCI/ADR-RES ovarian
[31] = tested on: RXF-631 renal
[32] = tested on: HOP-62 NSCLC
[33] = tested on: DLD-1 colon
[34] = tested on: KM12 colon
[35] = tested on: HS 578T breast
[36] = tested on: MDA-MB-435
[37] = tested on: OVCAR-3 ovarian
[38] = tested on: K-562 leukemia
[39] = tested on: SF-539 CNS
[40] = tested on: T-47D breast
[41] = tested on: SF-268 CNS
[42] = tested on: DMS 114 small cell lung
[43] = tested on: SNB-78 CNS
[44] = tested on: DU-145 prostate
[45] = tested on: LOX IMVI melanoma
[46] = tested on: SNB-75 CNS
[47] = tested on: SNB-19 CNS
[48] = tested on: OVCAR-8 ovarian
[49] = tested on: HOP-18 NSCLC
[50] = tested on: U251 CNS
[51] = tested on: TK-10 renal
[52] = tested on: HCC-2998 colon
[53] = tested on: NCI-H23 lung
[54] = tested on: SK-OV-3 ovarian
[55] = tested on: MDA-N
[56] = tested on: COLO 205 colon
[57] = tested on: OVCAR-4 ovarian
[58] = tested on: UACC-62 melanoma
[59] = tested on: MDA-MB-231 breast
[60] = tested on: CCRF-CEM leukemia
[61] = tested on: NCI-H226 lung
[62] = tested on: HCT-15 colon
[63] = tested on: RPMI-8226 leukemia

SMILES: COc1cc2c(c(OC)c1OC)-c1ccc(SC)c(=O)cc1[C@@H](N)CC2
- TGI [1]: 14.4 µM
- TGI [2]: 1.59 µM
- TGI [3]: 0.397 µM
- TGI [4]: > 100 µM
- TGI [5]: 0.384 µM
- TGI [6]: 13.3 µM
- TGI [7]: 48.3 µM
- TGI [8]: 95.3 µM
- TGI [9]: 0.148 µM
- TGI [10]: > 100 µM
- TGI [11]: 26.3 µM
- TGI [12]: 1.03 µM
- TGI [13]: > 100 µM
- TGI [14]: 0.0946 µM
- TGI [15]: > 100 µM
- TGI [16]: 0.0498 µM
- TGI [17]: > 100 µM
- TGI [18]: > 100 µM
- TGI [19]: > 100 µM
- TGI [20]: > 100 µM
- TGI [21]: 0.0522 µM
- TGI [22]: > 100 µM
- TGI [23]: > 100 µM
- TGI [24]: 10.9 µM
- TGI [25]: > 100 µM
- TGI [26]: > 100 µM
- TGI [27]: 4.64 µM
- TGI [28]: > 100 µM
- TGI [29]: > 100 µM
- TGI [30]: 0.215 µM
- TGI [31]: 2.24 µM
- TGI [32]: > 100 µM
- TGI [33]: > 100 µM
- TGI [34]: 0.871 µM
- TGI [35]: 2.94 µM
- TGI [36]: 0.0158 µM
- TGI [37]: 0.0517 µM
- TGI [38]: > 100 µM
- TGI [39]: 0.0287 µM
- TGI [40]: > 100 µM
- TGI [41]: > 100 µM
- TGI [42]: 0.012 µM
- TGI [43]: > 100 µM
- TGI [44]: > 100 µM
- TGI [45]: > 100 µM
- TGI [46]: > 100 µM
- TGI [47]: > 100 µM
- TGI [48]: 6.93 µM
- TGI [49]: > 100 µM
- TGI [50]: > 100 µM
- TGI [51]: 89.7 µM
- TGI [52]: 2.55 µM
- TGI [53]: 9.62 µM
- TGI [54]: 1.65 µM
- TGI [55]: 0.0512 µM
- TGI [56]: 0.0206 µM
- TGI [57]: > 100 µM
- TGI [58]: > 100 µM
- TGI [59]: > 100 µM
- TGI [60]: > 100 µM
- TGI [61]: 16.1 µM
- TGI [62]: 15.6 µM
- TGI [63]: > 100 µM
